This passage reports SUV results from ChEMBL document CHEMBL1154674, “Synthesis and evaluation of three 18F-labeled aminophenylbenzothiazoles as amyloid imaging agents” (J Med Chem, 2009).

This continues a long series; more values of the same kind are listed elsewhere.

Holding throughout (format): ADME, organism-based, Macaca mulatta
Data set [1] can be described thus: Drug level in normal rhesus monkey frontal cortex assessed as standard uptake value at 81.2 MBq, iv after 4.5 mins by microPET. Conditions: in vivo, 0.075 h.
The nature of data set [2]: Drug level in normal rhesus monkey white matter assessed as standard uptake value at 81.2 MBq, iv after 6 mins by microPET. As to conditions: in vivo, 0.1 h.
Data set [3] is described as follows: Drug level in normal rhesus monkey pons assessed as standard uptake value at 81.2 MBq, iv after 85 mins by microPET. As to conditions: in vivo.
The nature of data set [4]: Drug level in normal rhesus monkey parietal cortex assessed as standard uptake value at 81.2 MBq, iv after 17.5 mins by microPET. Conditions: in vivo.
Data set [5] can be described thus: Drug level in normal rhesus monkey pons assessed as standard uptake value at 81.2 MBq, iv after 115 mins by microPET. Conditions: in vivo.
Data set [6] can be described thus: Drug level in normal rhesus monkey parietal cortex assessed as standard uptake value at 81.2 MBq, iv after 65 mins by microPET. Conditions: in vivo.
Data set [7] can be described thus: Drug level in normal rhesus monkey thalamus assessed as standard uptake value at 81.2 MBq, iv after 85 mins by microPET. As to conditions: in vivo.
Data set [8] can be described thus: Drug level in normal rhesus monkey white matter assessed as standard uptake value at 81.2 MBq, iv after 1.5 mins by microPET. As to conditions: in vivo, 0.025 h.
The nature of data set [9]: Drug level in normal rhesus monkey white matter assessed as standard uptake value at 81.2 MBq, iv after 165 mins by microPET. Conditions: in vivo, 2.75 h.
A short description of data set [10]: Drug level in normal rhesus monkey pons assessed as standard uptake value at 81.2 MBq, iv after 42.5 mins by microPET. As to conditions: in vivo.
The nature of data set [11]: Drug level in normal rhesus monkey thalamus assessed as standard uptake value at 81.2 MBq, iv after 2.5 mins by microPET. Conditions: in vivo.
A short description of data set [12]: Drug level in normal rhesus monkey white matter assessed as standard uptake value at 109.4 MBq, iv after 6.5 mins by microPET. Conditions: in vivo.
Data set [13] is described as follows: Drug level in normal rhesus monkey frontal cortex assessed as standard uptake value at 109.4 MBq, iv after 0.375 mins by microPET. As to conditions: in vivo, 22 s.
The nature of data set [14]: Drug level in normal rhesus monkey parietal cortex assessed as standard uptake value at 109.4 MBq, iv after 0.875 mins by microPET. As to conditions: in vivo, 52 s.
The nature of data set [15]: Drug level in normal rhesus monkey frontal cortex assessed as standard uptake value at 109.4 MBq, iv after 42.5 mins by microPET. As to conditions: in vivo.
Data set [16] can be described thus: Drug level in normal rhesus monkey cerebellum assessed as standard uptake value at 109.4 MBq, iv after 3.5 mins by microPET. As to conditions: in vivo.
A short description of data set [17]: Drug level in normal rhesus monkey pons assessed as standard uptake value at 109.4 MBq, iv after 42.5 mins by microPET. Conditions: in vivo.
The nature of data set [18]: Drug level in normal rhesus monkey cerebellum assessed as standard uptake value at 109.4 MBq, iv after 123 mins by microPET. As to conditions: in vivo, 2.05 h.
The nature of data set [19]: Drug level in normal rhesus monkey white matter assessed as standard uptake value at 109.4 MBq, iv after 0.125 mins by microPET. Conditions: in vivo, 7 s.
Data set [20] in a line: Drug level in normal rhesus monkey cerebellum assessed as standard uptake value at 109.4 MBq, iv after 63 mins by microPET. Conditions: in vivo, 1.05 h.
Data set [21] can be described thus: Drug level in normal rhesus monkey white matter assessed as standard uptake value at 109.4 MBq, iv after 93 mins by microPET. As to conditions: in vivo, 1.55 h.
A short description of data set [22]: Drug level in normal rhesus monkey cerebellum assessed as standard uptake value at 96.3 MBq, iv after 37.5 mins by microPET. Conditions: in vivo, 0.625 h.
Data set [23] is described as follows: Drug level in normal rhesus monkey parietal cortex assessed as standard uptake value at 96.3 MBq, iv after 17.5 mins by microPET. As to conditions: in vivo.
Data set [24] is described as follows: Drug level in normal rhesus monkey thalamus assessed as standard uptake value at 96.3 MBq, iv after 85 mins by microPET. Conditions: in vivo.
A short description of data set [25]: Drug level in normal rhesus monkey parietal cortex assessed as standard uptake value at 96.3 MBq, iv after 57.5 mins by microPET. As to conditions: in vivo.
Data set [26] is described as follows: Drug level in normal rhesus monkey thalamus assessed as standard uptake value at 96.3 MBq, iv after 57.5 mins by microPET. Conditions: in vivo.
Data set [27] in a line: Drug level in normal rhesus monkey parietal cortex assessed as standard uptake value at 96.3 MBq, iv after 14 mins by microPET. Conditions: in vivo.
Data set [28] in a line: Drug level in normal rhesus monkey frontal cortex assessed as standard uptake value at 96.3 MBq, iv after 52.5 mins by microPET. Conditions: in vivo, 0.875 h.
The nature of data set [29]: Drug level in normal rhesus monkey white matter assessed as standard uptake value at 96.3 MBq, iv after 32.5 mins by microPET. As to conditions: in vivo.
Data set [30] can be described thus: Drug level in normal rhesus monkey white matter assessed as standard uptake value at 96.3 MBq, iv after 6 mins by microPET. As to conditions: in vivo, 0.1 h.
A short description of data set [31]: Drug level in normal rhesus monkey white matter assessed as standard uptake value at 96.3 MBq, iv after 145 mins by microPET. Conditions: in vivo.
Data set [32] in a line: Drug level in normal rhesus monkey cerebellum assessed as standard uptake value at 96.3 MBq, iv after 12 mins by microPET. As to conditions: in vivo, 0.2 h.
Data set [33] can be described thus: Drug level in normal rhesus monkey cerebellum assessed as standard uptake value at 96.3 MBq, iv after 75 mins by microPET. Conditions: in vivo, 1.25 h.
Data set [34] in a line: Drug level in normal rhesus monkey white matter assessed as standard uptake value at 96.3 MBq, iv after 175 mins by microPET. As to conditions: in vivo.
Data set [35] is described as follows: Drug level in normal rhesus monkey white matter assessed as standard uptake value at 96.3 MBq, iv after 135 mins by microPET. Conditions: in vivo, 2.25 h.

On to `CNc1ccc2nc(-c3ccc([18F])cc3)sc2c1`, for which the SUV in data set [1] is on record as 5.142; in data set [2] it was 3.13; in [3], 5.635; in data set [4] it was 4.712; in data set [5], 5.362; in data set [6] it was 3.277. Also, the SUV is given as 5.308 in data set [7]; 1.942 in data set [8]; 3.936 in data set [9]; 5.62 in data set [10]; 3.587 in data set [11].
For the compound `Nc1ccc2nc(-c3ccc([18F])cc3)sc2c1`, the SUV was determined as 2.84 in data set [12]; 0.08 in data set [13]; 2.58 in data set [14]; 4.93 in data set [15]; 5.85 in [16]; 4.97 in [17]. Besides, the SUV in data set [18] was determined as 2.29; in data set [19] it was 0; in data set [20], 2.99; in data set [21] it was 3.7.
Consider `CN(C)c1ccc2nc(-c3ccc([18F])cc3)sc2c1`, for which the SUV in data set [22] was 1.46; in data set [23], 2.05; in [24], 2.23; in [25], 1.63; in data set [26] it was 2.25; in data set [27] it was 2.18. For the same compound, the SUV was found to be 2.05 in data set [28]; 1.34 in [29]; 1.21 in data set [30]; 1.63 in [31]; 1.64 in data set [32]; 1.09 in [33]. Moreover, the values for the SUV in data set [34] and in [35] were 1.59 and 1.57, respectively.
